The values that follow come from the supplement of paper PMC10986608.

The other results are listed elsewhere or left out. Repeats are few or missing, and single values can be far off.

The subject of this assay is Candida albicans DPL-15. As to the kind of experiment: growth (OD600) after compound treatment (apparently relative to screen median) (relative growth (fraction; screen median 1.02)); DPL-15 is a caspofungin-resistant clinical isolate; higher = more fungal growth (less antifungal activity). Particulars: 25 µM; RPMI 1640; 48 h; 30 °C.
On to `CC(=O)C1=C(C)NC(=O)N(C(C)=O)C1c1ccccc1` (stereo unspecified), for which the growth was 0.83. As for `C=C(C)CC1=C(OS(=O)(=O)c2ccc(C)cc2)CCC1=O`, the growth turned out to be 1.11. As to `COC(=O)[C@H]1[C@@H](O)[C@@]2(O)c3c(OC)cc(OC)cc3O[C@@]2(c2ccc(OC)cc2)[C@@H]1c1cccc(C#N)c1`, the growth turned out to be 1.02. In the case of `Cc1cc(O)c2c(c1)OC1(C(=O)C=CC(O)=C1C(=O)O)C2=O` (stereo unspecified), the growth was 1.11. The figure for `COc1ccc(C(=O)COC(=O)c2c(N)cc(F)cc2F)cc1` is 1.02. Regarding `CC(C)c1ccc2c(c1)C1(Cc3occc(=O)c3OS(C)(=O)=O)CCCCC1=N2` (stereo unspecified), the growth was determined as 1.11. As to `COc1ccc(N2C(=O)C3=C(C(C)=NCCN3)C2c2ccc(F)cc2)cc1` (stereo unspecified), the growth was 1.04. As to `CN(Cc1ccccc1)C[C@@H]1CCCN(Cc2ccccc2)C1`, the growth was determined as 1.09.

Consider `C=CCC1CC2=C(OC1(C)C)C(C(=O)c1ccccc1)=C(O)C(CC=C)(CC=C)C2=O` (stereo unspecified), for which the growth is 1.05. The figure for `COc1ccc(N2C(=O)c3[nH]nc(CC(C)C)c3C2C2CCCCC2)cc1` (stereo unspecified) is 1.02. As to `Cc1cc2c(nc1C)CCCN2S(=O)(=O)c1ccccc1`, the growth was 0.891. Turning to `CC(=O)OC[C@H]1O[C@H](c2ccc(Cl)cc2)C=C[C@H]1OC(C)=O`, the growth worked out at 0.934. On to `COc1ccc(N2C(=O)c3[nH]nc(CC(C)C)c3C2c2ccncn2)cc1` (stereo unspecified), for which the growth worked out at 1.19. As to `CC(C)c1cc(Nc2cc(O)cc(O)c2C(=O)N2Cc3cccnc3C2)n(C)n1`, the growth is 1.39. `COC(=O)[C@@]12Oc3ccc(-c4ccc5occc(=O)c5c4)c(O)c3C(=O)C1=C(N)C[C@H](C)[C@@H]2O`: the growth was 1.13. Turning to `CC(C)(C)NS(=O)(=O)NCC(F)(F)F`, the growth was determined as 1.26. The figure for `C=C(C)[C@@H]1CC[C@]2(COC(C)=O)CC[C@]3(C)[C@H](CC[C@@H]4[C@@]5(C)CC/C(=N/O)C(C)(C)[C@@H]5CC[C@]43C)[C@@H]12` is 1.48. `CC(C)(C)[Si](C)(C)OCC1=C(Br)C2(OCCCO2)[C@@H]2O[C@]2(CO)[C@@H]1O`: the growth was determined as 0.918.

With `COC(=O)C1=C(C)N(Cc2cccc(C(F)(F)F)c2)C(NCCCOC(C)C)=NC1c1ccc(Cl)cc1` (stereo unspecified), the growth is 0.658. Take `Cc1noc(C)c1S(=O)(=O)N1CCCc2nc(-c3ccccc3)ccc21`: the growth turned out to be 0.888. Consider `CC(C)C1=NCC(C)(C)NC2=C1C(c1cccc(C(F)(F)F)c1)N(Cc1ccccc1)C2=O` (stereo unspecified), for which the growth came to 1.05.

On to `O[C@@H]1C2(O)c3ccccc3O[C@]1(c1ccccc1)[C@@H](/C=C/c1ccccc1)[C@@H]2c1ccccc1`, for which the growth came to 0.929. In the case of `COc1cc2c(cc1OC)[C@@]1(c3ccccc3)CCCC[C@H]1[C@@H]2NC(=O)C(F)(F)F` it was 1.05. With `COC(=O)C/C=C/[C@@H](C)[C@H](O)c1ccccc1Br`, the growth amounted to 0.973. In the case of `CCc1cc2c(nc1CC)CCCN2S(=O)(=O)c1ccc(C)cc1` it was 0.876. On to `Cc1ccc(S(=O)(=O)Oc2c(CC34CCCCC3=Nc3ccccc34)occc2=O)cc1` (stereo unspecified), for which the growth was determined as 1.17. `CC(=O)C1=C(C)NC(=O)NC1c1ccc(C)cc1` (stereo unspecified): the growth is 1.19.

On to `O=C1N[C@H](c2ccccc2)COCc2cc([nH]n2)-c2cccc(n2)C(=O)N2C[C@H](O)C[C@@H]12`, for which the growth worked out at 1.07.

For `C=CC[C@]12C[C@@]3(O[C@H](C4CCNCC4)N=C3C[C@H](c3ccc(OC)cc3)[C@H]1C)N(Cc1ccncc1)C2=O`, the growth worked out at 0.884. In the case of `COc1cc2c(cc1OC)[C@@]1(C)C=CC(=O)N1CC2` it was 0.975; in that of `CC(C)C1=C[C@H]2[C@H]3C(=O)C(c4ccc(O)cc4)=C[C@@]3(c3ccc(O)cc3)[C@@H]1C(=O)[C@]2(C)O`, 0.984; in that of `CC(C)Cc1n[nH]c2c1C(c1ccc(F)cc1)N(c1cccnc1)C2=O` (stereo unspecified), 1.14. `COC(=O)C1=C(C)N(Cc2ccccc2F)C(=S)NC1c1cccc(Br)c1` (stereo unspecified): the growth is 0.965.

`COc1cc(O)ccc1C(=O)/C=C/c1ccc(O)cc1`: the growth worked out at 1.23. On to `CCc1cc2c(nc1CC)CCCN2S(=O)(=O)c1ccc(C#N)cc1`, for which the growth came to 0.951.

Regarding `COCCN1C(=O)N[C@H](c2cccc(C(F)(F)F)c2)C(C(=O)OC)=C1C`, the growth was 0.927. Consider `COc1ccc(-c2cnn3c(N)c(-c4ccc(Cl)cc4)cnc23)cc1`, for which the growth amounted to 1.2.

In the case of `CC#CCOc1coc2ccccc2c1=O`, the growth is 1.07. Take `COc1cccc2c(=O)c3cccc(C(=O)Nc4ccc(CCN5CCc6ccccc6C5)cc4)c3[nH]c12`: the growth turned out to be 1.25. For the compound `COc1cc([C@@H]2[C@@H](C(=O)NCc3ccccc3)[C@@H](C(=O)NCc3ccccc3)[C@@H]2c2cc(OC)c(OC)c(OC)c2)cc(OC)c1OC`, the growth is 1.04.

On to `COC(=O)C/C=C/[C@H](C)[C@@H](NC(=O)[C@@H]1CCCN1C(=O)OC(C)(C)C)c1ccccc1`, for which the growth is 1.02. For `COc1ccc([C@@]23Oc4cc(OC)cc(OC)c4[C@]2(O)[C@H](O)[C@H](C(=O)c2cc(C)c(C)o2)[C@H]3c2ccccc2)cc1`, the growth came out at 1.2.

Turning to `COc1ccc(OC[C@H]2C=C(C)C[C@@]3(O2)C(=O)Nc2ccccc23)cc1`, the growth came out at 0.91. In the case of `COc1ccc2c(c1)[C@@H](NS(=O)(=O)c1c(C(C)C)cc(C(C)C)cc1C(C)C)[C@H](C)[C@H]2c1ccccc1` it was 1.21; in that of `C=CCOC(=O)C1(C(NC(=O)OC)c2ccccc2)C(=O)Cc2ccccc21` (stereo unspecified), 0.977; in that of `COc1ccc(-c2cnc3c(-c4ccc(F)cc4)cnn3c2)cc1`, 1.05. `CCCCCOS(=O)(=O)NCC`: the growth was 1.18.

In the case of `COC(=O)C1=C(C(=O)OC)C2N(Cc3ccccc3)c3ccccc3C23CCNC3=N1` (stereo unspecified), the growth stood at 0.939. As to `COc1ccc2c(c1)[C@@H](NS(=O)(=O)c1ccc(C(F)(F)F)cc1)[C@H](C)[C@H]2c1ccccc1`, the growth is 1.09. Consider `COc1ccc2c(c1)[C@H](c1ccccc1)[C@@H]1Cc3ccccc3[C@@H]1O2`, for which the growth worked out at 0.92. For the compound `CC(C)Cc1n[nH]c2c1C(c1ccc(F)cc1)NC2=O` (stereo unspecified), the growth amounted to 1.09. `COC(=O)C1=C(C)N(Cc2ccc(Cl)cc2)C(=S)NC1c1ccc(Cl)cc1` (stereo unspecified): the growth turned out to be 0.912. As for `CC(=O)C1=C(C)N(Cc2ccc(Cl)cc2)C(=S)NC1c1cccc(Br)c1` (stereo unspecified), the growth is 0.939. `Cc1ccc(C2C3=C(NCCN=C3c3ccccc3)C(=O)N2Cc2ccccc2)cc1` (stereo unspecified): the growth amounted to 1.04. For the compound `COC(=O)C1=C(C)N(Cc2ccccc2)C(=O)NC1c1ccccc1` (stereo unspecified), the growth was 1.11. Regarding `COc1ccc(Cn2nc(C(C)C)cc2Nc2cc(O)cc(O)c2C(=O)N2Cc3cccnc3C2)cc1`, the growth stood at 1.12. In the case of `[N-]=[N+]=NC1c2ccccc2-c2c1c1c3c(ccc4c3c2OCO4)OCO1` (stereo unspecified), the growth is 0.957.

With `CC1=C[C@]23O[C@H]2[C@H](O)C[C@@H](C)[C@]3(O)[C@@H]2CCC3(OCCO3)[C@@]2(O[Si](C)(C)C)C1`, the growth worked out at 1.07. Take `Cc1ccc2c(c1)C1(Cc3occc(=O)c3OS(C)(=O)=O)CCCCC1=N2` (stereo unspecified): the growth was found to be 1.18. The figure for `CCCC[C@]12Cc3cc(OC)c(OC)cc3[C@H](O1)c1c(c3ccccc3n(C)c1=O)O2` is 0.886; for `COC(=O)N[C@@H]1[C@@H](C)[C@H](OC)[C@]23C=CC=C[C@H]2[C@]13CCN1CCOCC1` it is 1.36. The figure for `CC1CC(c2ccccc2)=CC1=O` (stereo unspecified) is 1.01.

As to `CC(=O)C1=C2C=CCCN2C(=O)NC1c1cc(OC(F)(F)F)ccc1C` (stereo unspecified), the growth is 0.945. With `CC1=NCCNC2=C1C(c1ccc(F)cc1)N(c1ccccc1)C2=O` (stereo unspecified), the growth was 1. The figure for `COC(=O)C1=C(C(=O)OC)[C@@H]2N(CC=C(C)C)c3ccccc3[C@@]23CCC(=O)N(CCc2ccccn2)C3=N1` is 0.911; for `COc1ccc(CO/N=C2/CCCC/C=C/COC(=O)c3c(O)cc(O)cc3C2)cc1` it is 1.24. As to `C=CCN1C(=O)C2=C(C(C(C)C)=NCCN2C)C1c1cccc(C(F)(F)F)c1` (stereo unspecified), the growth turned out to be 1.01. In the case of `COC(=O)C1=C[C@@H]([C@@H](C)[C@H](OC)c2ccccc2Br)[C@@H]2OCCC[C@H]12`, the growth was 1.15. `CC1=NCCNC2=C1C(c1ccc3c(c1)OCO3)N(c1ccccc1)C2=O` (stereo unspecified): the growth was determined as 1.06.

Regarding `COc1ccc(Cn2nc(-c3ccoc3)cc2Nc2cc(O)cc(O)c2C(=O)N2Cc3cn[nH]c3C2)cc1`, the growth is 0.96. Turning to `COc1ccc(N2C(=O)C3=C(C(C)=NCCN3)C2c2ccc3c(c2)OCO3)cc1` (stereo unspecified), the growth is 1. `COc1cc(N2C(=O)c3[nH]nc(CC(C)C)c3C2c2ccc(F)cc2)ccc1F` (stereo unspecified): the growth is 1.06. For `CCNC(=O)c1cc(-c2c(Br)cc(OC)cc2OC)on1`, the growth worked out at 1.04. On to `CCCCN(C(=O)OC(C)(C)C)S(=O)(=O)NC(C)(C)C`, for which the growth came to 1.25. Turning to `CC(C)(C)c1ccc(C#C[C@@H]2C=C[C@H](OC(N)=O)[C@@H](COC(N)=O)O2)cc1`, the growth stood at 1.09. Consider `CCO[C@@H]1CCN(C(=O)c2c(O)cc(O)cc2Nc2c(C)nn(C)c2C)C1`, for which the growth is 1.2. In the case of `COC(=O)c1c(-c2ccccc2Br)c2c(c3c1[nH]c1ccccc13)C(=O)N(C)C2`, the growth came to 1.07. The figure for `CCCCS(=O)(=O)N1CCCc2nc(C)c(C)cc21` is 1.03; for `COCOc1cc(OC)cc(O)c1C(=O)/C=C/c1ccsc1` it is 1.01. For the compound `COC(=O)C/C=C/[C@H](C)[C@@H](/C=C/c1ccccc1)NC(=O)C(F)(F)F`, the growth amounted to 0.963. With `COc1ccc(C[C@@H](C)[C@@H](C)Cc2ccc(OC)c(OC)c2)cc1OC`, the growth is 1.02.
